Test results reported in PubChem BioAssay (NCATS).
The inconclusive results got no clear call from the source; some entries with a clear call stand among them for comparison. For some assays here: No potency is given beside an inconclusive call; the fits are too rough. Calls of active or inactive are those of the source. Unless noted, calls come from the whole dose curve; as a rule, active = well fitted curve in the direction sought with a large enough effect; inconclusive = small, poorly fitted or top-dose-only effect, or another doubt; inactive = no such curve, though single readings can be large; an effect the other way counts as inactive or inconclusive.

Experiments:
[1] = qHTS Validation Assay to Find Inhibitors of Chronic Active B-Cell Receptor Signaling (AID 485345; active = well fitted curve in the direction sought with a large enough effect in the main read-out, with a control signal flat, not every such curve was filed as active; inconclusive = small, poorly fitted or top-dose-only effect, or effect the other way, or a change in a side signal; inactive = no such curve, though single readings can be large or run the other way;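 note: 0% = untreated basal cells and 100% = 10 µM MG-132 proteasome inhibitor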); settings: ABC-DLBCL cells, chronic BCR signaling reporter; activity change: CBG luciferase, at 46.1 µM (top of the series)
Outline: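 TMD8 ABC-DLBCL cells with dox-inducible green luciferase–IκBα fusion and red native luciferase; compounds 46 uM–3 nM, 4 h at 37C with doxycycline in 0.5% FBS IMDM. Green/red ratio normalized to basal and 10 uM MG-132.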

[2] = qHTS for differential inhibitors of proliferation of Plasmodium falciparum line D10 (AID 1877); settings: series mostly up to 28.7 µM;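 note: potency is the fitted concentration of half-maximal effect; parasites grown with compound for 72 h before DNA staining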
[3] = Validation screen for small molecules that induce DNA re-replication in MCF 10A normal breast cells (AID 463097); settings: MCF 10A cells, DNA re-replication phenotype imaging; series mostly up to 46.1 µM; note: potency is the fitted concentration of half-maximal effect; nearly all actives have a fitted effect of over 60% in size
Outline: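 Image-based qHTS: normal breast cells are incubated with compound for 48 hr, stained with Hoechst, and scanned for total nuclear fluorescence. Compounds raising the fraction of nuclei with elevated DNA content count as re-replication inducers.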

[4] = target: Chromobox protein homolog 1 (Homo sapiens) (UniProt P83916); assay: qHTS Validation Assay for Inhibitors of HP1-beta Chromodomain Interactions with Methylated Histone Tails (AID 488953); settings: HP1-beta chromodomain / methylated histone peptide binding assay; series mostly up to 114 µM; note: potency is the fitted concentration of half-maximal effect; nearly all actives have a fitted effect of over 50% in size
UniProt P83916, sequence (P83916 whole entry, looked up): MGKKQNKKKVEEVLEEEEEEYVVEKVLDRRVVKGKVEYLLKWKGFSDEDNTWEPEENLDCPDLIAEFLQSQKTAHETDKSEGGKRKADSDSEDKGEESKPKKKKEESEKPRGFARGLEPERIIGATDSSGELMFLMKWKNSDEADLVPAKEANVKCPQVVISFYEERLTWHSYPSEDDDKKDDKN
Outline: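 HP1-beta (50 nM) preformed 30 min with biotinylated H3(1-18)K9me3 peptide (50 nM) in PBS pH 7.4, 0.01% Tween-20. Compounds added for 30 min at room temperature. Complex disruption read by AlphaScreen with streptavidin donor/nickel chelate acceptor beads (10 ug/mL each).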

[5] = qHTS for Inhibitors of ATXN expression: Validation (AID 588378); settings: cell-based ATXN2 expression reporter assay, luminescence; series mostly up to 57.1 µM; note: potency is the fitted concentration of half-maximal effect; nearly all actives have a fitted effect of over 75% in size
Outline: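 Compounds were pinned onto attached HEK293 cells carrying an ATXN2-firefly luciferase construct and incubated 24 hrs at 37 degrees C. Each well then received a fluorescent viability reagent followed by luciferase substrate for end-point luminescence.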

[6] = Quantitative High-Throughput drug screen in 47 multiple myeloma cell lines against the NCATS MIPE library collection: AMO1_DSMZ cell viability assay (AID 1918927;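 note: 100% = DMSO only wells and 0% = cell-free media only wells; nearly all actives have a fitted effect of over 30% in size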); settings: AMO1 myeloma cells viability, CellTiter-Glo ATP luminescence, 48 h; viability, % of DMSO: at 45.8 µM (top of the series)
Outline: (§1)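 Primary qHTS used for cherry-picking: cells at 500/well, library compounds for 48 h (37C, 5% CO2), luminescent ATP assay.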

[7] = Quantitative High-Throughput drug screen in 47 multiple myeloma cell lines against the NCATS MIPE library collection: ARP1_JJKsccF8 cell viability assay (AID 1918928; note: nearly all actives have a fitted effect of over 40% in size); settings: ARP1 myeloma cells viability, CellTiter-Glo ATP, 48 h; series mostly up to 45.8 µM
Outline: (§2)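 Luminescence from CellTiter-Glo, taken after 5 min at room temperature, reports cellular ATP as viability. Cells (500 per well) had been treated 48 h at 37 °C with MIPE 4.0 compounds, scaled between DMSO and medium-only controls.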

[8] = Quantitative High-Throughput drug screen in 47 multiple myeloma cell lines against the NCATS MIPE library collection: Karpas620_DSMZ cell viability assay (AID 1918959); settings: Karpas620 myeloma viability, CellTiter-Glo ATP luminescence, 48 h; series mostly up to 45.8 µM; note: potency is the fitted concentration of half-maximal effect; nearly all actives have a fitted effect of over 30% in size
Outline: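 Viability readout: CellTiter-Glo luminescence following 5 min room-temperature incubation with reagent. Prior exposure: 48 h, 37C, humidified 5% CO2, 500 cells per well.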

[9] = Quantitative High-Throughput drug screen in 47 multiple myeloma cell lines against the NCATS MIPE library collection: KMM1_JCRB cell viability assay (AID 1918960); settings: KMM1 myeloma viability, CellTiter-Glo ATP luminescence, 48 h; series mostly up to 45.8 µM; note: nearly all actives have a fitted effect of over 30% in size
Outline: as §2

[10] = Quantitative High-Throughput drug screen in 47 multiple myeloma cell lines against the NCATS MIPE library collection: INA6_PLB cell viability assay (AID 1918965; note: potency is the fitted concentration of half-maximal effect; nearly all actives have a fitted effect of over 55% in size); settings: INA6 myeloma viability, CellTiter-Glo ATP luminescence, 48 h; series mostly up to 45.8 µM
Outline: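 Approved and investigational drugs from MIPE 4.0 were added by pin tool to 500 cells per well. After 48 hours at 37C, ATP-based CellTiter-Glo luminescence indicated remaining viability.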

[11] = Quantitative High-Throughput drug screen in 47 multiple myeloma cell lines against the NCATS MIPE library collection: JJN3_DSMZ cell viability assay (AID 1918966; note: nearly all actives have a fitted effect of over 50% in size); settings: JJN3 myeloma cells viability, CellTiter-Glo ATP, 48 h; viability, % of DMSO: at 45.8 µM (top of the series)
Outline: as §1

[12] = Quantitative High-Throughput drug screen in 47 multiple myeloma cell lines against the NCATS MIPE library collection: H1112_PLB cell viability assay (AID 1918967; note: potency is the fitted concentration of half-maximal effect; nearly all actives have a fitted effect of over 30% in size); settings: H1112 myeloma cells viability, ATP luminescence, 48 h; series mostly up to 45.8 µM
Outline: as §1

[13] = Quantitative High-Throughput drug screen in 47 multiple myeloma cell lines against the NCATS MIPE library collection: Karpas25_ECACC cell viability assay (AID 1918968; note: nearly all actives have a fitted effect of over 35% in size); settings: Karpas25 myeloma viability, CellTiter-Glo ATP, 48 h; series mostly up to 45.8 µM
Outline: as §1

[14] = Quantitative High-Throughput drug screen in 47 multiple myeloma cell lines against the NCATS MIPE library collection: KMS27_JCRB cell viability assay (AID 1918970); settings: KMS27 myeloma cells, CellTiter-Glo ATP viability, 48 h; series mostly up to 45.8 µM
Outline: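 ATP-based viability (CellTiter-Glo luminescence) is measured in cells treated 48 h with approved and investigational drugs at 37 °C. Controls are DMSO-only wells for full viability and media-only wells for none.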

[15] = Quantitative High-Throughput drug screen in 47 multiple myeloma cell lines against the NCATS MIPE library collection: KMS12BM_JCRB cell viability assay (AID 1918971); settings: KMS12BM myeloma viability, CellTiter-Glo ATP, 48 h; series mostly up to 45.8 µM;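 note: 100% = DMSO-only wells and 0% = media-only wells without cells; nearly all actives have a fitted effect of over 35% in size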
Outline: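 Relative luminescence from CellTiter-Glo served as the viability signal, referenced to DMSO-treated (100%) and cell-free medium (0%) controls. Treatment lasted 48 hours at 37C with 500 cells per well.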

[16] = Quantitative High-Throughput drug screen in 47 multiple myeloma cell lines against the NCATS MIPE library collection: KMS21BM_JCRB cell viability assay (AID 1918974); settings: ATP luminescence, 48 h; series mostly up to 45.8 µM; note: potency is the fitted concentration of half-maximal effect
Outline: as §1

[17] = Quantitative High-Throughput drug screen in 47 multiple myeloma cell lines against the NCATS MIPE library collection: MM1R_ATCC cell viability assay (AID 1918981); settings: MM1R multiple myeloma cells, CellTiter-Glo viability, 48 h; series mostly up to 45.8 µM; note: potency is the fitted concentration of half-maximal effect; nearly all actives have a fitted effect of over 35% in size
Outline: (§3)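 MIPE 4.0 approved/investigational drugs; 500 cells/well; 48 h 37 °C humidified 5% CO2; CTG luminescence readout; DMSO = 100%, media = 0% viability.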

[18] = Quantitative High-Throughput drug screen in 47 multiple myeloma cell lines against the NCATS MIPE library collection: KMS28PE_JCRB cell viability assay (AID 1918983); settings: KMS28PE multiple myeloma viability, CellTiter-Glo ATP, 48 h; series mostly up to 45.8 µM; note: nearly all actives have a fitted effect of over 35% in size
Outline: as §3

[19] = Quantitative High-Throughput drug screen in 47 multiple myeloma cell lines against the NCATS MIPE library collection: OCIMY5_PLB cell viability assay (AID 1918988); settings: OCI-MY5 myeloma viability, ATP luminescence, 48 h; series mostly up to 45.8 µM; note: potency is the fitted concentration of half-maximal effect; nearly all actives have a fitted effect of over 65% in size
Outline: as §3

[20] = Quantitative High-Throughput drug screen in 47 multiple myeloma cell lines against the NCATS MIPE library collection: OPM1_PLB cell viability assay (AID 1918989); settings: CellTiter-Glo, 48 h; series mostly up to 45.8 µM; note: potency is the fitted concentration of half-maximal effect; nearly all actives have a fitted effect of over 40% in size
Outline: as §3
Tags give direction and shape of the fitted curve.

In the case of CC[C@H]1CN2CCc3cc(OC)c(OC)cc3[C@@H]2C[C@@H]1C[C@H]1NCCc2cc(OC)c(OC)cc21, the activity change [1] is reported as inconclusive: 49.8%.
For Fc1ccc(C(c2ccc(F)cc2)N2CCN(C/C=C/c3ccccc3)CC2)cc1, the Potency [2] was active: 11.2 µM, the Potency [3] was active: 12.6 µM and the Potency [4] was inconclusive [inhibitor, partial curve]. The Potency [5] was inconclusive [inhibitor, single point].
In the case of Nc1ccn(C[C@@H](CO)OCP(=O)(O)O)c(=O)n1, the Potency [6] is reported as “inactive”, the Potency [7] is reported as “inactive” and the Potency [8] is reported as inconclusive [cytotoxic, partial curve, poor fit]. The Potency [9] was “inactive”, the Potency [10] was inconclusive [rising, full curve, poor fit] and the Potency [11] was “inactive”. The Potency [12] was inconclusive [cytotoxic, partial curve, poor fit], the Potency [13] was “inactive” and the Potency [14] was “inactive”. For the same compound, the Potency [15] was “inactive”, the Potency [16] was inconclusive [rising, partial curve] and the Potency [17] was inconclusive [rising, single point]. The Potency [18] was “inactive”, the Potency [19] was inconclusive [cytotoxic, full curve, poor fit] and the Potency [20] was inconclusive [cytotoxic].
